# According to the supplement of paper PMC8728848:
# The list shows a part of the results.
# B1: CPA (Cicer arietinum) (protein)
# chain: MAFSYLNLVLVTLTTLFFLQTTKVKSQKSVSFHITNFTISRPSITLQGTAEFLPNVLLLNDIEHPVFVVGRALYSKPITLWNNKTGKVASFVTSFTFDVQDLKKTVPGHGLVFFLAPSGSEIPFSSDGGNLGVVDGKNAFNRFVGVEFDNFVNSWDPKYSHVGINVNSLISTKTVKWNRVSGELVKVSIVYDSVSTTLTVIVTYKNGQISILSQLVDLKAVLPDTVNIGFSASTTLVSPRQLHNIHSWSFTSTFET
# Assays:
# Assay in all cases: glycan array binding signal (z-score within array); higher = stronger binding
# Conditions in all cases: glycan notation: IUPAC condensed, linker removed
# [1] = molecular target: Fuc(a1-2)Gal(b1-4)GlcNAc(b1-3)Gal(b1-4)GlcNAc(b1-3)Gal(b1-4)GlcNAc
# Summary of the method: (§1)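 Columns mapping to the same glycan were averaged after glycan names were converted to IUPAC-condensed notation. The data come from 3228 arrays in the Consortium for Functional Glycomics database, limited to those with an available protein sequence. Binding is reported as a within-array Z-score averaged across arrays of one protein sequence and across linkers.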
# [2] = molecular target: Fuc(a1-2)Gal(b1-4)GlcNAc(b1-3)GalNAc
# Summary of the method: as §1
# [3] = molecular target: Fuc(a1-2)Gal(b1-4)GlcNAc(b1-3)[Fuc(a1-2)Gal(b1-4)GlcNAc(b1-6)]GalNAc
# Summary of the method: as §1
# [4] = molecular target: Fuc(a1-2)Gal(b1-4)GlcNAc(b1-3)[Fuc(a1-3)[Gal(b1-4)]GlcNAc(b1-6)]Gal(b1-4)Glc
# Summary of the method: as §1
# [5] = molecular target: Fuc(a1-2)Gal(b1-4)GlcNAc(b1-6)GalNAc
# Summary of the method: as §1
# [6] = molecular target: Fuc(a1-2)Gal(b1-4)GlcNAc6S
# Summary of the method: as §1
# [7] = molecular target: Fuc(a1-2)Gal(b1-4)[Fuc(a1-3)]GlcNAc
# Summary of the method: as §1
# [8] = molecular target: Fuc(a1-2)Gal(b1-4)[Fuc(a1-3)]GlcNAc(b1-2)Man(a1-3)[Fuc(a1-2)Gal(b1-4)[Fuc(a1-3)]GlcNAc(b1-2)Man(a1-6)]Man(b1-4)GlcNAc(b1-4)[Fuc(a1-6)]GlcNAc
# Summary of the method: as §1
# [9] = molecular target: Fuc(a1-2)Gal(b1-4)[Fuc(a1-3)]GlcNAc(b1-2)[Fuc(a1-2)Gal(b1-4)[Fuc(a1-3)]GlcNAc(b1-4)]Man(a1-3)[Fuc(a1-2)Gal(b1-4)[Fuc(a1-3)]GlcNAc(b1-2)Man(a1-6)]Man(b1-4)GlcNAc(b1-4)GlcNAc
# Summary of the method: as §1
# [10] = molecular target: Fuc(a1-2)Gal(b1-4)[Fuc(a1-3)]GlcNAc(b1-3)Gal(b1-4)[Fuc(a1-3)]GlcNAc
# Summary of the method: as §1
# [11] = molecular target: Fuc(a1-2)Gal(b1-4)[Fuc(a1-3)]GlcNAc(b1-3)Gal(b1-4)[Fuc(a1-3)]GlcNAc(b1-3)Gal(b1-4)[Fuc(a1-3)]GlcNAc
# Summary of the method: as §1
# [12] = molecular target: Fuc(a1-2)Gal(b1-4)[Fuc(a1-3)]GlcNAc(b1-3)GalNAc
# Summary of the method: as §1
# [13] = molecular target: Fuc(a1-2)Gal(b1-4)[Fuc(a1-3)]GlcNAc(b1-3)[Neu5Ac(a2-6)Gal(b1-4)GlcNAc(b1-6)]Gal(b1-4)Glc
# Summary of the method: as §1
# [14] = molecular target: Fuc(a1-2)Gal3S(b1-4)GlcNAc
# Summary of the method: as §1
# [15] = molecular target: Fuc(a1-2)Gal6S(b1-3)GlcNAc
# Summary of the method: as §1
# [16] = molecular target: Fuc(a1-2)Gal6S(b1-3)GlcNAc6S
# Summary of the method: as §1
# Fuc(a1-2)Gal6S(b1-4)Glc = molecular target: Fuc(a1-2)Gal6S(b1-4)Glc
# Summary of the method: as §1
# [17] = molecular target: Fuc(a1-2)Gal6S(b1-4)Glc6S
# Summary of the method: as §1
# Fuc(a1-2)[Gal(a1-3)]Gal = molecular target: Fuc(a1-2)[Gal(a1-3)]Gal
# Summary of the method: as §1
# [18] = molecular target: Fuc(a1-2)[Gal(a1-3)]Gal(b1-3)GalNAc
# Summary of the method: as §1
# [19] = molecular target: Fuc(a1-2)[Gal(a1-3)]Gal(b1-3)GalNAc(b1-3)Gal(a1-4)Gal(b1-4)Glc
# Summary of the method: as §1
# [20] = molecular target: Fuc(a1-2)[Gal(a1-3)]Gal(b1-3)GlcNAc
# Summary of the method: as §1
# [21] = molecular target: Fuc(a1-2)[Gal(a1-3)]Gal(b1-3)GlcNAc(b1-2)Man(a1-3)[Fuc(a1-2)[Gal(a1-3)]Gal(b1-3)GlcNAc(b1-2)Man(a1-6)]Man(b1-4)GlcNAc(b1-4)GlcNAc
# Summary of the method: as §1
# [22] = molecular target: Fuc(a1-2)[Gal(a1-3)]Gal(b1-3)GlcNAc(b1-2)Man(a1-3)[Fuc(a1-2)[Gal(a1-3)]Gal(b1-3)GlcNAc(b1-2)Man(a1-6)]Man(b1-4)GlcNAc(b1-4)[Fuc(a1-6)]GlcNAc
# Summary of the method: as §1
# [23] = molecular target: Fuc(a1-2)[Gal(a1-3)]Gal(b1-3)GlcNAc(b1-3)GalNAc
# Summary of the method: as §1
# [24] = molecular target: Fuc(a1-2)[Gal(a1-3)]Gal(b1-3)GlcNAc(b1-6)GalNAc
# Summary of the method: as §1
# [25] = molecular target: Fuc(a1-2)[Gal(a1-3)]Gal(b1-4)Glc
# Summary of the method: as §1
# [26] = molecular target: Fuc(a1-2)[Gal(a1-3)]Gal(b1-4)GlcNAc
# Summary of the method: as §1
# [27] = molecular target: Fuc(a1-2)[Gal(a1-3)]Gal(b1-4)GlcNAc(b1-2)Man
# Summary of the method: as §1
# [28] = molecular target: Fuc(a1-2)[Gal(a1-3)]Gal(b1-4)GlcNAc(b1-2)Man(a1-3)[Fuc(a1-2)[Gal(a1-3)]Gal(b1-4)GlcNAc(b1-2)Man(a1-6)]Man(b1-4)GlcNAc(b1-4)GlcNAc
# Summary of the method: as §1
# [29] = molecular target: Fuc(a1-2)[Gal(a1-3)]Gal(b1-4)GlcNAc(b1-2)Man(a1-3)[Fuc(a1-2)[Gal(a1-3)]Gal(b1-4)GlcNAc(b1-2)Man(a1-6)]Man(b1-4)GlcNAc(b1-4)[Fuc(a1-6)]GlcNAc
# Summary of the method: as §1
# [30] = molecular target: Fuc(a1-2)[Gal(a1-3)]Gal(b1-4)GlcNAc(b1-3)GalNAc
# Summary of the method: as §1
# [31] = molecular target: Fuc(a1-2)[Gal(a1-3)]Gal(b1-4)GlcNAc(b1-6)GalNAc
# Summary of the method: as §1
# [32] = molecular target: Fuc(a1-2)[Gal(a1-3)]Gal(b1-4)[Fuc(a1-3)]Glc
# Summary of the method: as §1
# [33] = molecular target: Fuc(a1-2)[Gal(a1-3)]Gal(b1-4)[Fuc(a1-3)]GlcNAc
# Summary of the method: as §1
# [34] = molecular target: Fuc(a1-2)[Gal(a1-3)]Gal(b1-4)[Fuc(a1-3)]GlcNAc(b1-3)GalNAc
# Summary of the method: as §1
# [35] = molecular target: Fuc(a1-2)[Gal(a1-4)]Gal(b1-4)GlcNAc
# Summary of the method: as §1
binder,measurement,setting,value
B1,glycan array binding signal (z-score),[1],-0.4
same,glycan array binding signal (z-score),[2],-0.18
same,glycan array binding signal (z-score),[3],-0.156
same,glycan array binding signal (z-score),[4],-0.415
same,glycan array binding signal (z-score),[5],1.15
same,glycan array binding signal (z-score),[6],-0.13
same,glycan array binding signal (z-score),[7],-0.517
same,glycan array binding signal (z-score),[8],1.26
same,glycan array binding signal (z-score),[9],0.531
same,glycan array binding signal (z-score),[10],-0.681
same,glycan array binding signal (z-score),[11],-0.685
same,glycan array binding signal (z-score),[12],1.62
same,glycan array binding signal (z-score),[13],-0.429
same,glycan array binding signal (z-score),[14],-0.683
same,glycan array binding signal (z-score),[15],-0.432
same,glycan array binding signal (z-score),[16],0.604
same,glycan array binding signal (z-score),Fuc(a1-2)Gal6S(b1-4)Glc,-0.439
same,glycan array binding signal (z-score),[17],-0.459
same,glycan array binding signal (z-score),Fuc(a1-2)[Gal(a1-3)]Gal,-0.469
same,glycan array binding signal (z-score),[18],-0.461
same,glycan array binding signal (z-score),[19],-0.581
same,glycan array binding signal (z-score),[20],-0.159
same,glycan array binding signal (z-score),[21],-0.655
same,glycan array binding signal (z-score),[22],-0.184
same,glycan array binding signal (z-score),[23],-0.431
same,glycan array binding signal (z-score),[24],-0.634
same,glycan array binding signal (z-score),[25],-0.387
same,glycan array binding signal (z-score),[26],-0.028
same,glycan array binding signal (z-score),[27],-0.454
same,glycan array binding signal (z-score),[28],0.562
same,glycan array binding signal (z-score),[29],0.14
same,glycan array binding signal (z-score),[30],-0.133
same,glycan array binding signal (z-score),[31],-0.493
same,glycan array binding signal (z-score),[32],-0.056
same,glycan array binding signal (z-score),[33],-0.17
same,glycan array binding signal (z-score),[34],-0.222
same,glycan array binding signal (z-score),[35],0.226
